Among the data in the RNAGym collection of RNA variant scans (doi:10.1101/gad.245936.114) are nonsense suppression values, retold here.

B1: tRNA (parent)
chain: CUCUCGGUAGCCAAGUUGGUUUAAGGCGCAAGACUUUAAUUUAUCACUACGAAAUCUUGAGAUCGGGCGUUCGACUCGCCCCCGGGAGAUUUUUUCCUCGAGCAA

Variants at the background level are over-represented here.

This data set covers variants of B1. The data set is described as follows: nonsense suppression (GFP-seq) (ratio to wild type); higher = more function; SUP4oc tRNA, yeast GFP reporter sort-seq. The essentials: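 Yeast were grown in raffinose/galactose medium with 80 mg/L adenine, each strain bearing a genome-integrated ochre-suppressor tRNA variant from a ~3% random-mutation library, a galactose-driven GFP ochre reporter, and RFP. After sorting into GFP/RFP bins, every bin was sequenced on an Illumina platform at phred ≥30. The GFPSEQ value, a measure of nonsense suppression, is the weighted bin median GFP/RFP relative to the unmutated parent tRNA, using each variant's estimated cell share per bin as the weight. Only variants with ≥100 reads and ≥30 cells were included.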
On to CCCUCGGUAGCCAAGUUGGUUUAAGGCGCAAGACUUUAAUUUAUCACUACGAAAUGUUGAGAUCGGGCGUUCGACUCGCCCCGGGGAGAUUUUUUCCUCGAGCAA [U2C C56G C83G], for which the nonsense suppression is at most 0.026.
For CUCUCGGUAGCCAAGUUGGUUUAAGGCGCAAGACUUUAAUUUAUCACUACGAAAUCUUGAGAUCGGGCCUUCGACUCGCCACCGGGAGAUUUUUUCCUCGAGCAA [G69C C81A] the value was at most 0.026; for CUCACGGUAGCCAAGUUGGUUUAAGGCGCAAGACUUUAAUUUAUCACUACGAAAUCUUGAUAUCGGGCGUUCGACUCGCCCGCGGGAGAUUUUUUCCUCGAGCAA [U4A G61U C82G], at most 0.026; for CUCUCGGUAGCCAAGUUGGUUUAAGGCGCAAGAGUUUAAUUUAUCACUACGAAAUCUUGAGAUCGGUCGUUCGACUCGCCCCCGGGAGAUUUUUUCCUCGAGCAA [C34G G67U], at most 0.026.
With CUCUCGGUAGCCAAGGUGGUUUAAGGCGCAACACUUUAAUUUAUCACUACGAAAUCUUGAGAUCGGGCGUUCGACUAGCCCCCGGGAUAUUUUUUCCUCGAGCAA [U16G G32C C77A G88U], the nonsense suppression is at most 0.026.
For GUCUCGGUAGCCAAGUUGGUAUAAGGCGCAAGACUUUAAUUUAUCACUACGAAAUCUUGAGAUCGGGCGUUCCACUCGCCCCCGGGAGAUUUUUUCCUCGAGCAA [C1G U21A G73C], the nonsense suppression was at most 0.026.
In the case of CUCUCGGUAGCCAAGUUGGUGUCUGGCGCAAGACUUUAAUUUAUCACUACGAAAUCUUGAAAUCGGGCGUUCGACUCGCCCCCGCGAGAUUUUUUCCUCGAGCAA [U21G A23C A24U G61A G85C], the nonsense suppression was at most 0.026.
For CUCGCGGUAGCCAAGUUGGUUUAAGGGGCAAGACUUUAAUUUAUCACUACGAAAUCUUGAGAUCGGGCGUUCGACUCGCCCCCGGGAGAUUUUUUCCUCGAGCAA [U4G C27G] the value was at most 0.026.
For CUUUCGGUAGCCAAGUUGGUUUAAGGCGCAAGACUUUAAUUUAUCACUACGAAAUCUCGAGAUCGGGCGUUCGACUCGCCCCCGGGAUAUUUUUUCCUCGAGCAA [C3U U58C G88U] the value was at most 0.026.
Consider CUGUCGGUAGCCAAGUUGGUUUGAGGCGCAAGACUUUAAUUUAUCACUACGAAAUCUUCAGUCCGCGCGUUCGACUCGCCCCCGGGAGAUUUUUUCCUCGAGCAA [C3G A23G G59C A62U U63C G66C], for which the nonsense suppression was at most 0.026.
CUAUCGGUAGCCAAGUUGGUUUAAGGCGCAAGACUUUAAUUUAUCACUACGAAAUCUUGAGAUCGGGCGUUCGACUCGCCCCCCGGAGAUUUUUUCCUCGAGCAA [C3A G84C]: the nonsense suppression was at most 0.026.
On to CUCUCUCUAGCCAAGUCGGUUUAAGGCGCAAGACUUUAAUUUAUCACUACGAAAUCUUGAGAUCGGGCGUUCGACUCGCCCCCGGGAGAUUUUUUCCUCGAGCAA [G6U G7C U17C], for which the nonsense suppression was at most 0.026.
On to CUCUCGGUAGCCAAGUUGGUUAAAGGUGCAAGAUUUUAAUUUAUCACUACGAAAUCUUGAGAUCGGGCGUUCGACUCGCCCCCGGGAGAUUUUUUCCUCGAGCAA [U22A C27U C34U], for which the nonsense suppression is at most 0.026.
For GUCUCGGUAGCCAAGUUGGUUUAAGGAGCAAGACUUUAAUUUAUCACUACGAAAUCUUGAAAUCGGGCGUUCGACUCGCCCCCGGGAGAUUUUUUCCUCGAGCAA [C1G C27A G61A], the nonsense suppression was at most 0.026.
With CUCUCGGUAGCCAGGUUGGUUUUAGGCGCAAGACUUUAAUUUAUCACUACGAAAUCUUGAGAUCGGGCCUUCGACUCGCCCCCGGGAGAUUUUUUCCUCGAGCAA [A14G A23U G69C], the nonsense suppression is at most 0.026.
For the variant CUCUCGGUAGCCAAGUUGGUUUAAGGCGCAAGGCGUUAAUUUAUCACUACGAAAACUUGAGAUCGGGCAUUCGACUCGCCCCCGGGAGAUUUUUUCCUCGAGCAA [A33G U35G U55A G69A], the nonsense suppression is at most 0.026.
Take AUCUCGGUAGCCAAGUUGGUUUAAGGCGCAAGACUUUAAUUUAUCACUACGAAAUCUUGAGAUCGGGCGUUCGACUCGCCCCCGGGAGGUUUUUUCCUCGAGCAA [C1A A89G]: the nonsense suppression was at most 0.026.
Regarding CUCUCGGUAUCCAAGUUCGUUUAAGGCGCAAGACUUUAAUUUAUCACUACGAAAUCUUGAGAUCGGGCGUUCGACUCGCCCCCGGGACAUUUUUUCCUCGAGCAA [G10U G18C G88C], the nonsense suppression is at most 0.026.
Consider CUCUCGGUAGCCAAGUUGGUUUAAGGCGCAAGACUUUAAUUUAUCACUACGAAAUCUUGAGAUCGGGCGUUCGAUUCCCCCCCGGGAGAUUUUUUCCUCGAGCAA [C75U G78C], for which the nonsense suppression is 1.14.
As for CUCUCGGUAGCCAAGUGGGUUUAAGGCGCAAGACUUUAAUUUAUCACUACGAAAUCUUGAGAUCGGGCGUUCGACUCGCACCCGGGAGAUUUUUUCCUCGAGCAA [U17G C80A], the nonsense suppression was at most 0.026.
Regarding CUCUCGGUAGCCGAGUUGGUUUAAGGCGCAAGACUUUAAUUUAUCACUACGAAAUCUUCUGAUCGGGCGUACGACUCGCCCCCGGGAGAUUUUUUCCUCGAGCAA [A13G G59C A60U U71A], the nonsense suppression is at most 0.026.
For CUCUCGGUAGACAAGUUGGUUUAAGGCGCGAGACUUUAAUUUAUCACUACGAAAUCUUGAGAUCGGGCGUUCGACUCGCCCCCGGGAGAUUUUUUCCUCGAGCAA [C11A A30G], the nonsense suppression came out at 0.0331.
For the variant CUCUCGGUAGCCAAGUUGGGUUAAGGCGCAUGACUUUAAUUUAUCACUACGAAAUCUUGAGAUCGGGCGUUCGACUCGCCCCCUGGAGAUUUUUUCCUCGAGCAA [U20G A31U G84U], the nonsense suppression is at most 0.026.
In the case of CUCUCGGUAGCCAAGUUAGGUUAAGGCGCAAGACUUUAAUUUAUCACUACGAAAUCUUGAGAUCGGGCGUUCGACUCGCCCCCGGGAGAUUUUUUCCUCGAGCAA [G18A U20G], the nonsense suppression was determined as 0.905.
As to CUCUCGGUAGCCGAGUUGGUUUUAGGGGCAAGACUUUAAUUUAUCACUACGAAAUCUUGAGAUCGGGCGUUCGACUCGCCCCCGGGAGAUUUUUUCCUCGAGCAA [A13G A23U C27G], the nonsense suppression is at most 0.026.
CUCUCGGUAGCCAAGUUGGUUUAAGGCGCAGGACUUUAAUUUAUCACUACGAAAUCUUGAGAUCGGUCGUUCGACGCGCCCCCGGGAGAUUUUUUCCUCGAGCAA [A31G G67U U76G]: the nonsense suppression is at most 0.026.
Next, CUCUCGGUAGCGUAGAUGGUUUAAGGCGCAAGACUUUAAUUUAUCACUACGAAAUCUUGAGAUCGGGCGUUCGACUCGCCCCCGGGAGAUUUUUUCCUCGAGCAA [C12G A13U U16A]: at most 0.026.
